These are yes or no findings as the source states them, for the method shown. In cells and extracts the contact can be indirect. Some entries that bind do so weakly or less than the wild type. Where a sequence is shown, tags or fusion partners need not be part of it.

Chains of the proteins cited; added tags and fusions are not shown. Residues count along the entry.
UniProt Q9HC16, residues 197-384: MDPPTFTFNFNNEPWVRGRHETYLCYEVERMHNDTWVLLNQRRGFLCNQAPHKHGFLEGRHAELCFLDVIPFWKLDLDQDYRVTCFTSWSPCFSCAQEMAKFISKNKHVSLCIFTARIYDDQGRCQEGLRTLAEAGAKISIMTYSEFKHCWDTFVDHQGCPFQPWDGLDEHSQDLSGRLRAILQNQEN

We go through 6 substances from publication PMC9747160.

This test concerns the target T1, Epstein-Barr virus (EBV) BORF2, ribonucleotide reductase (RNR) large subunit, C-terminal 3xFLAG (Epstein-Barr virus (EBV, HHV-4)) (UniProt P03190).
T1 sequence: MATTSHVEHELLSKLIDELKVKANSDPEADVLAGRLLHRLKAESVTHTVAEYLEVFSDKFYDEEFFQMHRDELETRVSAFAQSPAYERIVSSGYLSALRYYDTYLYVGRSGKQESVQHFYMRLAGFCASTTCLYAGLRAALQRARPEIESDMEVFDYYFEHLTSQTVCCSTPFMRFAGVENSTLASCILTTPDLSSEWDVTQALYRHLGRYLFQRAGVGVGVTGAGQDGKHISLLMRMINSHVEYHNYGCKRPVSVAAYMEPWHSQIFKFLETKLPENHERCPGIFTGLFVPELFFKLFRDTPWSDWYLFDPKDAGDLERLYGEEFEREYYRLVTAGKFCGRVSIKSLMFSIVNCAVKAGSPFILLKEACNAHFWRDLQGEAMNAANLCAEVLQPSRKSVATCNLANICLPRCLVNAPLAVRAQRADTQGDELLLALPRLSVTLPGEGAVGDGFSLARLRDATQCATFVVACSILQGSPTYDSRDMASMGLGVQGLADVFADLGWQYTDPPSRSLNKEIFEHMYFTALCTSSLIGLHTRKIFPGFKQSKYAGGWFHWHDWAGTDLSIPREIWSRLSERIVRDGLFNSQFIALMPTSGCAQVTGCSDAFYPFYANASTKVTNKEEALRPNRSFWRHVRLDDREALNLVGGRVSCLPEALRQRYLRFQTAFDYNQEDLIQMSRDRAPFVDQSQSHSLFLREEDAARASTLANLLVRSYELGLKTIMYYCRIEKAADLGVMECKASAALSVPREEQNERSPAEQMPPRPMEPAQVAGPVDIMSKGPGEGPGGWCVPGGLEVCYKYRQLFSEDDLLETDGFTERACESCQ
In words: co-IP; RNR-3xFLAG and A3-EGFP co-expressed in 293T cells; clarified lysate (50 mM Tris-HCl pH 7.4, 150 mM NaCl, 10% glycerol, 0.5% IGEPAL, 100 ug/ml RNaseA) on anti-FLAG M2 magnetic beads at 4°C overnight; eluted with FLAG peptide; anti-GFP immunoblot.

On to “human APOBEC3G catalytic domain, A3Gctd_(197-384), C-terminal EGFP (from UniProt Q9HC16-1 197-384) (domain or fragment)”, for which the binding result is “no binding”.
Take “A3A_L1A3G_(209-217), C-terminal EGFP (from UniProt P31941-1 1-24; Q9HC16-1 209-217; P31941-1 31-199)”: the binding entry is recorded as “binds”.
On to “human APOBEC3A, C-terminal EGFP (from UniProt P31941-1 1-199)”, for which the binding entry is on record as “binds”.
With “A3Gctd_(197-384)_L7A3A_(132-137), C-terminal EGFP (from UniProt Q9HC16-1 197-316; P31941-1 132-137; Q9HC16-1 323-384)”, the binding entry was “binds”.
In the case of “A3A_L7A3G_(317-322), C-terminal EGFP (from UniProt P31941-1 1-131; Q9HC16-1 317-322; P31941-1 138-199)” it was “no binding”; in that of “A3A_L3A3G_(247-254), C-terminal EGFP (from UniProt P31941-1 1-59; Q9HC16-1 247-254; P31941-1 68-199)”, “binds”.
